# Test results: publication PMC10039067, “Temporal and spatial assembly of inner ear hair cell ankle link condensate through phase separation” (Nature Communications, 2023)
# Residue numbers refer to the chain shown, from its start. Numbers in names are those of the source. No constants are given. Whether binding was seen depends on the method and setting. Some results given as binding are weak or reduced against the parent protein; the word gives no strength. For some assays here: Sequences can lack the tags named with a protein.
# T1: PDZD7 PDZ12 (UniProt E9Q9W7)
# T1 sequence: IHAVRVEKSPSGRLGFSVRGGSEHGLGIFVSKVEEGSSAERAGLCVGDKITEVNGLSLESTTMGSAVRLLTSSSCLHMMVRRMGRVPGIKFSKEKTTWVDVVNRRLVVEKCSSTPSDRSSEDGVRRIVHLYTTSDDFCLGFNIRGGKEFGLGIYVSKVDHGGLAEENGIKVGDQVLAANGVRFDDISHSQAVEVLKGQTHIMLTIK
# T2: PDZD7 PDZ3 (UniProt E9Q9W7)
# T2 sequence: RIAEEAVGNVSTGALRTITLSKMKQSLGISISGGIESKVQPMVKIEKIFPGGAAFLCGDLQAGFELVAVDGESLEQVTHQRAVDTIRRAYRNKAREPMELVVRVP
# T3: WHRN NPDZ1 (UniProt Q9P202 33-239)
# T3 chain: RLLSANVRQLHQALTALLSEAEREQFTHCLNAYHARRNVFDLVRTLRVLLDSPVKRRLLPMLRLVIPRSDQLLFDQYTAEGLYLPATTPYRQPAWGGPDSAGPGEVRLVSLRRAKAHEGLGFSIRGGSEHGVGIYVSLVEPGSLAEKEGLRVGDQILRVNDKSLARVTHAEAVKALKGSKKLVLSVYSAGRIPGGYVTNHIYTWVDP
# T4: WHRN NPDZ12 (UniProt Q9P202 33-377)
# T4 construct: WHRN, residues 33-377 (NTD, PDZ1 and PDZ2) of UniProtKB Q9P202; Cloned into pET.32M.3C; Named Trx-WHRN NPDZ12 in SEC-MALS; also called Trx-WHRN NPDZ12; Whirlin; source: E. coli BL21 (DE3), purified (Ni2+-NTA, size-exclusion chromatography); not shown: Trx, N-terminal, kept
# T4 sequence (looked up): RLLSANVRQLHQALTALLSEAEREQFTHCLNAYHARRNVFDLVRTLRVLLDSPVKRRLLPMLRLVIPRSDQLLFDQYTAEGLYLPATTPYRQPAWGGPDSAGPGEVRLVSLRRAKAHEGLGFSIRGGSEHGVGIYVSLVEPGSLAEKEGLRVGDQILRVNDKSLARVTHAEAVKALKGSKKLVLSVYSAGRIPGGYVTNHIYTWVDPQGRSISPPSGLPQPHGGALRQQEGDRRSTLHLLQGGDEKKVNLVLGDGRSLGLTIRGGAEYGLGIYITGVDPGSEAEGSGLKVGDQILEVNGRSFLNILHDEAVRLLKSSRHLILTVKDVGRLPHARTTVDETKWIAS
# T5: GST-PDZD7 PDZ12 (UniProt E9Q9W7)
# T5 sequence: T1 sequence
# T6: GST-WHRN NPDZ12 (UniProt Q9P202)
# T6 sequence: T4 sequence (looked up)
# B1: ADGRV1-CT (domain or fragment, UniProt Q8VHN7 6239-6298, looked up)
# chain: GSLIADEESQEFDDLIFALKTGAGLSVSDNESGQGSQEGGTLTDSQIVELRRIPIADTHL
# notes: ADGRV1 cytoplasmic region, residues 6239-6298 of UniProtKB Q8VHN7; Named Trx-ADGRV1-CT in SEC-MALS; also called Trx-ADGRV1-CT; VLGR1-CT; source: E. coli BL21 (DE3), purified (Ni2+-NTA, size-exclusion chromatography); not shown: Trx, N-terminal, kept
# B2: PDZD7 PDZ12 G103R (domain or fragment, UniProt E9Q9W7 84-289)
# chain: T1 sequence with G20R
# Tests used:
# PDZD7 PDZ12 = target: T1, PDZD7 PDZ12; test: ITC; MicroCal iTC200, 25 °C; 50 mM tris pH 7.5-8.0, 300 mM NaCl, 1 mM DTT, 1 mM EDTA; cell 20–50 µM, syringe 400–800 µM; one-site binding model; both purified
# PDZD7 PDZ3 = target: T2, PDZD7 PDZ3; test: as above
# WHRN NPDZ1 = target: T3, WHRN NPDZ1; test: as above
# WHRN NPDZ12 [1] = target: T4, WHRN NPDZ12; test: SEC; FPLC on Superose 12 10/300 GL with fractionation; WHRN NPDZ12, USH2A-CT(S) and ADGRV1-CT mixed at 1:1:1; fractions on SDS-PAGE, Coomassie blue; both purified
# GST-PDZD7 PDZ12 = target: T5, GST-PDZD7 PDZ12; test: pull-down; GST-tagged bait (10 μM) with purified partners, room temperature 0.5 h or 4 °C 1 h; washed with purification buffer; SDS-PAGE and Coomassie blue staining; both purified
# GST-WHRN NPDZ12 = target: T6, GST-WHRN NPDZ12; test: as above
# WHRN NPDZ12 [2] = target: T4, WHRN NPDZ12; test: co-sedimentation; 20 μM of each protein, room temperature 5 min, 30 °C 10 min, centrifuged at 16,873 g 10 min; supernatant and pellet on SDS-PAGE, Coomassie blue (condensed phase); both purified
Binder,binding (PDZD7 PDZ12),binding (PDZD7 PDZ3),binding (WHRN NPDZ1),binding (WHRN NPDZ12 [1]),binding (GST-PDZD7 PDZ12),binding (GST-WHRN NPDZ12),binding (WHRN NPDZ12 [2])
B1,"no binding (tested: cell 20–50 µM, syringe 400–800 µM)","no binding (tested: cell 20–50 µM, syringe 400–800 µM)",binds,binds,no binding,binds,binds
B2,–,–,–,–,–,no binding,–
